We go through 9 molecules from US20200181257A1 (Chugai, published 2020).

Like-named read-outs stand apart in the source and are kept apart here.

Experiment in all cases: SPR, antibody captured on Protein A
Assay [1] deals with T1, human Fcγ receptor hFcgRIa (human, UniProt P12314 16-292, limits assumed).
T1 construct: Construct used in the SPR assay is not described; also called hFcγRIa; FcγI
How it is done:
(§1) The CH2 domain, which was modified in this examination, is known to be involved in interaction with several human Fcγ receptors (hereinafter denoted as hFcgRs) which affect effector functions. Therefore, the binding of TS1 and TS19 prepared by using the H chain of anti-IL6R produced in Example 2 to hFcgRs was measured, according to the method described in Reference Example 3.
(§2) Interactions between antibodies and hFcgRs (hFcgRIa, hFcgRIIa(R), hFcgRIIa(H), hFcgRIIb, hFcgRIIIa(F), and hFcgRIIIa(V)) were analyzed using Biacore T100 (GE Healthcare). HBS-EP+(GE Healthcare) was used for the running buffer, and the measurement temperature was set at 25° C. Protein A (Invitrogen) was immobilized by the amino coupling method, and an antibody of interest was captured thereon. Then, hFcγR solutions diluted using the running buffer were injected to allow interaction with the captured antibody at a flow rate of 30 μL/min for five minutes for hFcγRIa, and at a flow rate of 5 μL/min for one minute for the other hFcγRs. […] Since the hFcγR binding level depends on the amount of captured antibodies, the FcgR-binding levels were corrected so that the capture level of each antibody would be 200 RU (resonance unit) for hFcgRIa and 1000 RU (resonance unit) for the other hFcgRs. The captured antibodies were washed by allowing 10 mM glycine-HCl (pH 1.5) to react for 30 seconds at a flow rate of 30 μL/min to recycle the chip for reuse.

Assay [2] concerns the target T2, human Fcγ receptor hFcgRIIa (H) (human, UniProt P12318 36-217).
T2 construct: also called FcγRIIa (type H); FcγIIA
T2 sequence: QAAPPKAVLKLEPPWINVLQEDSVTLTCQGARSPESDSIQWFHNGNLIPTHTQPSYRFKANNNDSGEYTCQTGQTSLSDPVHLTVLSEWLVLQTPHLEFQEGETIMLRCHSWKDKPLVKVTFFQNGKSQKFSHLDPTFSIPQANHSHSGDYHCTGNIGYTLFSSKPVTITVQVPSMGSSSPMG
The method, then: as §1, §2

The target of assay [3] is T3, human Fcγ receptor hFcgRIIIa (V) (human, UniProt P08637 partial chain).
T3 construct: also called FcγRIIIa allotype V158; FcγIIIA
How it is done: as §1, §2

In assay [4] the target is T1, human Fcγ receptor hFcgRIa. The method, then:
(§3) Furthermore, binding ability to hFcgRs was measured by the method described in Reference Example 3.
as §2
The source holds these as a separate data set.

The target of assay [5] is T4, human Fcγ receptor hFcgRIIb (human, UniProt P31994 43-217, limits assumed).
T4 construct: Construct used in the SPR assay is not described; also called FcγRIIb; FcγIIB
T4 sequence: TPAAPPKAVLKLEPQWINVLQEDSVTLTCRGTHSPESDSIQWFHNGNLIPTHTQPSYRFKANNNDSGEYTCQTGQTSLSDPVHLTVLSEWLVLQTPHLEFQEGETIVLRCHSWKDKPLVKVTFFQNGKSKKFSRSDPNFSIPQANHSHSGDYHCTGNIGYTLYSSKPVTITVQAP
How it is done: as §3, §2

Assay [6] concerns the target T3, human Fcγ receptor hFcgRIIIa (V). How it is done:
as §3, §2
This is another data set of the same source.

T3 sequence (P08637 other isoform, or with tags, fused parts or gaps limits assumed): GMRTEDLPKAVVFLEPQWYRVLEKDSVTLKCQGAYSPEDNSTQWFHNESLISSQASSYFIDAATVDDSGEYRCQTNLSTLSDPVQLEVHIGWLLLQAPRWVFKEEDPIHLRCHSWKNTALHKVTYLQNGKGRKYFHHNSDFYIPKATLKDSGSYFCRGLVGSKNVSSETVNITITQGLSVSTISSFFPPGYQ
T1 sequence (P12314 16-292 limits assumed): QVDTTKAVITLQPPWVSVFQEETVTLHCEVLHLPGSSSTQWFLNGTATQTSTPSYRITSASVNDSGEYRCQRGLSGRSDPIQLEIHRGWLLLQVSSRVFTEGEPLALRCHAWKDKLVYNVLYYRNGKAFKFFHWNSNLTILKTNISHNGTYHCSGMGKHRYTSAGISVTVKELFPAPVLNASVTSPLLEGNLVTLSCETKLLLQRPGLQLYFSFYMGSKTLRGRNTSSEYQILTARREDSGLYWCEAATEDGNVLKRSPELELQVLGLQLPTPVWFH

B1: TS15 (antibody)
heavy: QVQLQESGPGLVRPSQTLSLTCTVSGYSITSDHAWSWVRQPPGRGLEWIGYISYSGITTYNPSLKSRVTMLRDTSKNQFSLRLSSVTAADTAVYYCARSLARTTAMDYWGQGSLVTVSS[human IgG1 constant region with H268K D270F (EU numbers) not shown]
light: DIQMTQSPSSLSASVGDRVTITCRASQDISSYLNWYQQKPGKAPKLLIYYTSRLHSGVPSRFSGSGSGTDFTFTISSLQPEDIATYYCQQGNTLPYTFGQGTKVEIKRTVAAPSVFIFPPSDEQLKSGTASVVCLLNNFYPREAKVQWKVDNALQSGNSQESVTEQDSKDSTYSLSSTLTLSKADYEKHKVYACEVTHQGLSSPVTKSFNRGEC
notes: anti-IL6R IgG1, G1d with H268K/D270F (EU)
For B1, the “binding relative to G1 (=100)” value in assay [1] was found to be 80.8; in assay [2], 30.6; in assay [3] it was 10.1.

B2: TS64 (antibody)
heavy: QVQLQESGPGLVRPSQTLSLTCTVSGYSITSDHAWSWVRQPPGRGLEWIGYISYSGITTYNPSLKSRVTMLRDTSKNQFSLRLSSVTAADTAVYYCARSLARTTAMDYWGQGSLVTVSS[human IgG1 constant region with M428W (EU numbers) not shown]
light: DIQMTQSPSSLSASVGDRVTITCRASQDISSYLNWYQQKPGKAPKLLIYYTSRLHSGVPSRFSGSGSGTDFTFTISSLQPEDIATYYCQQGNTLPYTFGQGTKVEIKRTVAAPSVFIFPPSDEQLKSGTASVVCLLNNFYPREAKVQWKVDNALQSGNSQESVTEQDSKDSTYSLSSTLTLSKADYEKHKVYACEVTHQGLSSPVTKSFNRGEC
notes: anti-IL6R IgG1, G1d with M428W (EU)
Turning to B2, the “binding relative to G1 (=100)” value in assay [4] stood at 99.4; in assay [5], 124; in assay [6], 105.

B3: TS47 (antibody)
heavy: QVQLQESGPGLVRPSQTLSLTCTVSGYSITSDHAWSWVRQPPGRGLEWIGYISYSGITTYNPSLKSRVTMLRDTSKNQFSLRLSSVTAADTAVYYCARSLARTTAMDYWGQGSLVTVSS[human IgG1 constant region with T250M (EU numbers) not shown]
light: DIQMTQSPSSLSASVGDRVTITCRASQDISSYLNWYQQKPGKAPKLLIYYTSRLHSGVPSRFSGSGSGTDFTFTISSLQPEDIATYYCQQGNTLPYTFGQGTKVEIKRTVAAPSVFIFPPSDEQLKSGTASVVCLLNNFYPREAKVQWKVDNALQSGNSQESVTEQDSKDSTYSLSSTLTLSKADYEKHKVYACEVTHQGLSSPVTKSFNRGEC
notes: anti-IL6R IgG1, G1d with T250M (EU)
B3: the “binding relative to G1 (=100)” value came out at 101 in assay [4], 163 in assay [5] and 72 in assay [6].

B4: TS46 (antibody)
heavy: QVQLQESGPGLVRPSQTLSLTCTVSGYSITSDHAWSWVRQPPGRGLEWIGYISYSGITTYNPSLKSRVTMLRDTSKNQFSLRLSSVTAADTAVYYCARSLARTTAMDYWGQGSLVTVSS[human IgG1 constant region with T250I (EU numbers) not shown]
light: DIQMTQSPSSLSASVGDRVTITCRASQDISSYLNWYQQKPGKAPKLLIYYTSRLHSGVPSRFSGSGSGTDFTFTISSLQPEDIATYYCQQGNTLPYTFGQGTKVEIKRTVAAPSVFIFPPSDEQLKSGTASVVCLLNNFYPREAKVQWKVDNALQSGNSQESVTEQDSKDSTYSLSSTLTLSKADYEKHKVYACEVTHQGLSSPVTKSFNRGEC
notes: anti-IL6R IgG1, G1d with T250I (EU)
With B4, the figures for the “binding relative to G1 (=100)” value in assay [4] and in assay [6] were 99.2 and 89.6, respectively.

B5: TS55 (antibody)
heavy: QVQLQESGPGLVRPSQTLSLTCTVSGYSITSDHAWSWVRQPPGRGLEWIGYISYSGITTYNPSLKSRVTMLRDTSKNQFSLRLSSVTAADTAVYYCARSLARTTAMDYWGQGSLVTVSS[human IgG1 constant region with L309A (EU numbers) not shown]
light: DIQMTQSPSSLSASVGDRVTITCRASQDISSYLNWYQQKPGKAPKLLIYYTSRLHSGVPSRFSGSGSGTDFTFTISSLQPEDIATYYCQQGNTLPYTFGQGTKVEIKRTVAAPSVFIFPPSDEQLKSGTASVVCLLNNFYPREAKVQWKVDNALQSGNSQESVTEQDSKDSTYSLSSTLTLSKADYEKHKVYACEVTHQGLSSPVTKSFNRGEC
notes: anti-IL6R IgG1, G1d with L309A (EU)
As for B5, the entries for the “binding relative to G1 (=100)” value in assay [4], in assay [5] and in assay [6] were 99.2, 106 and 90.5, respectively.

B6: TS65 (antibody)
heavy: QVQLQESGPGLVRPSQTLSLTCTVSGYSITSDHAWSWVRQPPGRGLEWIGYISYSGITTYNPSLKSRVTMLRDTSKNQFSLRLSSVTAADTAVYYCARSLARTTAMDYWGQGSLVTVSS[human IgG1 constant region with M428Y (EU numbers) not shown]
light: DIQMTQSPSSLSASVGDRVTITCRASQDISSYLNWYQQKPGKAPKLLIYYTSRLHSGVPSRFSGSGSGTDFTFTISSLQPEDIATYYCQQGNTLPYTFGQGTKVEIKRTVAAPSVFIFPPSDEQLKSGTASVVCLLNNFYPREAKVQWKVDNALQSGNSQESVTEQDSKDSTYSLSSTLTLSKADYEKHKVYACEVTHQGLSSPVTKSFNRGEC
notes: anti-IL6R IgG1, G1d with M428Y (EU)
Turning to B6, the figures for the “binding relative to G1 (=100)” value in assay [4] and in assay [6] were 101 and 96.8, respectively.

B7: TS50 (antibody)
heavy: QVQLQESGPGLVRPSQTLSLTCTVSGYSITSDHAWSWVRQPPGRGLEWIGYISYSGITTYNPSLKSRVTMLRDTSKNQFSLRLSSVTAADTAVYYCARSLARTTAMDYWGQGSLVTVSS[human IgG1 constant region with T250Y (EU numbers) not shown]
light: DIQMTQSPSSLSASVGDRVTITCRASQDISSYLNWYQQKPGKAPKLLIYYTSRLHSGVPSRFSGSGSGTDFTFTISSLQPEDIATYYCQQGNTLPYTFGQGTKVEIKRTVAAPSVFIFPPSDEQLKSGTASVVCLLNNFYPREAKVQWKVDNALQSGNSQESVTEQDSKDSTYSLSSTLTLSKADYEKHKVYACEVTHQGLSSPVTKSFNRGEC
notes: anti-IL6R IgG1, G1d with T250Y (EU)
With B7, the entries for the “binding relative to G1 (=100)” value in assay [4], in assay [5] and in assay [6] were 102, 169 and 98.9, respectively.

B8: TS59 (antibody)
heavy: QVQLQESGPGLVRPSQTLSLTCTVSGYSITSDHAWSWVRQPPGRGLEWIGYISYSGITTYNPSLKSRVTMLRDTSKNQFSLRLSSVTAADTAVYYCARSLARTTAMDYWGQGSLVTVSS[human IgG1 constant region with N315A (EU numbers) not shown]
light: DIQMTQSPSSLSASVGDRVTITCRASQDISSYLNWYQQKPGKAPKLLIYYTSRLHSGVPSRFSGSGSGTDFTFTISSLQPEDIATYYCQQGNTLPYTFGQGTKVEIKRTVAAPSVFIFPPSDEQLKSGTASVVCLLNNFYPREAKVQWKVDNALQSGNSQESVTEQDSKDSTYSLSSTLTLSKADYEKHKVYACEVTHQGLSSPVTKSFNRGEC
notes: anti-IL6R IgG1, G1d with N315A (EU)
As to B8, the “binding relative to G1 (=100)” value turned out to be 102 in assay [4], 99 in assay [5] and 96.1 in assay [6].

B9: TS45 (antibody)
heavy: QVQLQESGPGLVRPSQTLSLTCTVSGYSITSDHAWSWVRQPPGRGLEWIGYISYSGITTYNPSLKSRVTMLRDTSKNQFSLRLSSVTAADTAVYYCARSLARTTAMDYWGQGSLVTVSS[human IgG1 constant region with T250F (EU numbers) not shown]
light: DIQMTQSPSSLSASVGDRVTITCRASQDISSYLNWYQQKPGKAPKLLIYYTSRLHSGVPSRFSGSGSGTDFTFTISSLQPEDIATYYCQQGNTLPYTFGQGTKVEIKRTVAAPSVFIFPPSDEQLKSGTASVVCLLNNFYPREAKVQWKVDNALQSGNSQESVTEQDSKDSTYSLSSTLTLSKADYEKHKVYACEVTHQGLSSPVTKSFNRGEC
notes: anti-IL6R IgG1, G1d with T250F (EU)
B9: the “binding relative to G1 (=100)” value was found to be 105 in assay [4], 150 in assay [5] and 84.7 in assay [6].
